Experimental data from PMC4336329 (PLoS ONE, 2015).
About 2,200 (0.71%) of roughly 310,000 compounds showed an effect of 50% or more. Effects have a minus sign here. This is one part of the list.

target: human ether-à-go-go-related gene (hERG) potassium channel (human, UniProt Q12809); assay: primary screen, population patch clamp on CHO cells stably expressing hERG
Sequence (Q12809 whole entry, looked up): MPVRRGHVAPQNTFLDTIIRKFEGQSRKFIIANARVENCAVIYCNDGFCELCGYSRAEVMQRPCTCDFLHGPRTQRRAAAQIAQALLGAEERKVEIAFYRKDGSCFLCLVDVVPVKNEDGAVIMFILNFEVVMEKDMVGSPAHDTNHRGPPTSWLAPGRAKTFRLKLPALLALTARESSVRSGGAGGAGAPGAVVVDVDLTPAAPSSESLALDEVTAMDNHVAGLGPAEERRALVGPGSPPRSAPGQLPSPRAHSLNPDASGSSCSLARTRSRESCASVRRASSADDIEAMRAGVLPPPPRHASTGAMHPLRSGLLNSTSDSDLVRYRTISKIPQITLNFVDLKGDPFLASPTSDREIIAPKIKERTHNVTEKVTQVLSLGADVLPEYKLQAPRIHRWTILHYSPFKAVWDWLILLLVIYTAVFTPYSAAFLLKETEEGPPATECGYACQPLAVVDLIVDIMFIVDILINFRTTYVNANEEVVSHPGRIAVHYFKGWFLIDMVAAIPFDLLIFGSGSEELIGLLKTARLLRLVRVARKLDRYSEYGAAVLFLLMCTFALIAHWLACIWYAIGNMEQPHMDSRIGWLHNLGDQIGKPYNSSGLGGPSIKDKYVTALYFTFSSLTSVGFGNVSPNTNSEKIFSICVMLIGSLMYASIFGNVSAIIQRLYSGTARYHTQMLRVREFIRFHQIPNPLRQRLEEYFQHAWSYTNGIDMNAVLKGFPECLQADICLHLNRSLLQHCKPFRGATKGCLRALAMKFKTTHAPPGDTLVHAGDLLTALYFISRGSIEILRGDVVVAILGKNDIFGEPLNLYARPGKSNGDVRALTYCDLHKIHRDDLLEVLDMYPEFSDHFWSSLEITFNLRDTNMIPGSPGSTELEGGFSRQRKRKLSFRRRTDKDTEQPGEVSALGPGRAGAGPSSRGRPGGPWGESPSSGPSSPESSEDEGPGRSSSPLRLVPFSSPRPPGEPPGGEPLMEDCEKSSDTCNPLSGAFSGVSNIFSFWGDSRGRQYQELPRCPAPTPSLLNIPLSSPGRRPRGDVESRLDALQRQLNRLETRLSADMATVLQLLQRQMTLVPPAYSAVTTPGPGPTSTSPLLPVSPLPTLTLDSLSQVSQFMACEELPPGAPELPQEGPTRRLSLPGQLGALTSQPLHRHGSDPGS

Structure (SMILES)	hERG current change (%, negative = inhibition) at 1uM [%]
Cc1ccc(Cl)cc1NC(=O)c1ccccc1OCC(=O)Nc1ccc(Cl)cc1	-5.79
CCOc1ccc2nc(NCCNC(=O)CC)c(C#N)cc2c1	6.16
O=C(COc1ccccc1Cl)NC(=O)NC1CCCCC1	9.41
CCN(CC)C(=O)c1c(C)nc2ccccn12	9.13
Clc1ccc(N/N=C/c2cccs2)nn1	10.2
CCOc1cc(C(=O)Nc2cc(C(=O)OC)ccc2C)ccc1OCC(=O)N1CCOCC1	3.5
Cn1c(=O)oc2cc(S(=O)(=O)CCC(=O)N3CCN(c4ccccc4F)CC3)ccc21	9.76
O=C(CSc1nnc(-c2ccccc2)n1Cc1ccco1)NCc1ccc2c(c1)OCO2	-22.2
COc1nc(NCc2ccco2)nc(N2CCC(C)CC2)n1	8.49
Cl.O=C(OCCN1CCOCC1)C1(c2ccccc2)CCCCC1	-3.09
COc1nc(OCCNS(=O)(=O)c2ccc(C)cc2)nc(N(C)C)n1	7.75
Nc1nnc(SCCN2C(=O)c3ccccc3C2=O)s1	-1.3
CCCCCCCc1c(O)nc(SCCN(C)C)[nH]c1=O.Cl	0.416
COc1ccccc1NC(=O)NCC(c1ccco1)N1CCCCC1 (stereo not shown)	15.1
CCn1cc(C(=O)NCc2ccc(C)o2)c2cc(OC)c(OC)cc2c1=O	14.4
COC(=O)Nc1sc2c(c1C(=O)NCc1ccco1)CCCC2	-5.05
CCS(=O)(=O)c1ncc(Cl)c(C(=O)Nc2ccc(S(=O)(=O)N3CCC(C)CC3)cc2)n1	22.6
COc1ccc(-c2nc(CS(=O)CC(=O)NC3CCCCC3C)c(C)o2)cc1OC (stereo not shown)	11.1
Cc1oc(CC(C)C)cc1C(=O)Nc1ccc(C(=O)O)cc1	6.11
COCCn1c(=S)[nH]c2cc(C(=O)N(CCO)Cc3ccccc3)ccc2c1=O	18.5
CC(/C=C1\SC(=O)N(CC(=O)Nc2ccc(O)cc2)C1=O)=C\c1ccccc1	-3.15
COc1ccc(Cl)cc1S(=O)(=O)N1CCCC(C(=O)NCCc2ccccc2)C1 (stereo not shown)	10.3

Structure (SMILES)	hERG current change (%, negative = inhibition) at 1uM [%]
CCCCC1=CC2=C(c3ccco3)C(=O)C(C)(OC(=O)c3ccc(OC)cc3)C(=O)C2=CN1CC1CC1 (stereo not shown)	16.9
CCCCC(CC)C(=O)NCc1ccccc1OC (stereo not shown)	-3.83
CCc1nnc(NC(=O)c2cc([N+](=O)[O-])ccc2N2CCOCC2)s1	0.37
COc1cc(NC(=O)[C@@H]2CCCN(S(=O)(=O)c3cccc4cccnc34)C2)cc(OC)c1OC	12.4
Cc1cc(C)n(C(=O)c2cccc([N+](=O)[O-])c2)n1	7.79
O=C(CC(Nc1ccccc1Cl)C(=O)OCC(=O)c1cccs1)c1ccccc1 (stereo not shown)	8.49
CCOC(=O)c1c(NC(=O)c2c(C(=O)O)cccc2[N+](=O)[O-])sc2c1CCCC2	9.23
COc1ccc(CN2CCCCC2C(=O)Nc2ccc(OC)c(OC)c2)cc1OC (stereo not shown)	1.96
O=S(Cc1ccccc1)CC(O)(c1ccc(Cl)cc1)c1ccc(Cl)cc1 (stereo not shown)	8.36
COC(=O)c1ccccc1S(=O)(=O)N1CCC(C(=O)NCCC2=CCCCC2)CC1	3.67
COc1cc(OC)cc(C(=O)NC2CCN(Cc3nnnn3Cc3cccs3)CC2)c1	2
C=CCn1c(N)cc(=O)nc1SCC(=O)Nc1ccc2ccccc2c1	11.5
CCOC(=O)Cn1c(=N)n(CCOc2ccc(OC)cc2)c2ccccc21.Cl	-4.6
Fc1cccc(-c2cc3nc4c(c(N5CCC6(CC5)OCCO6)n3n2)CCCC4)c1	4.63
O=c1c2c(nc3nc[nH]n13)CCC2	-0.632
Cc1cc(=O)[nH]c(Cc2ccc(OC(C)C)cc2)n1	10.6
COc1ccc(OC)c(C(=O)c2c(C)oc3cc([N+](=O)[O-])c(O)c([N+](=O)[O-])c23)c1	15.3
N#CC1(c2ccc(NC(=O)c3ccccc3)cc2)CCCC1	7.32
COc1cccc2cc(C(=O)NC(C)C3CCCO3)c(=O)oc12 (stereo not shown)	-1.93
CC(C)C1CC(CCNCc2ccc(N(C)C)cc2)(c2ccccc2)CCO1 (stereo not shown)	-3.61
CC(C)(C)c1nc2ccc([N+](=O)[O-])cc2[nH]1	-46.9
NS(=O)(=O)c1ccc(CCNC(=O)C(=O)c2cn(CC(=O)N3CCCC3)c3ccccc23)cc1	10.6

Structure (SMILES)	hERG current change (%, negative = inhibition) at 1uM [%]
Cc1ccc(C)c(NC(=S)NCc2ccccc2)c1	15.8
CCOC(=O)N1CCN(C(=O)CSc2ccc3nnc(CCNC(=O)c4ccccc4)n3n2)CC1	14
O=C(CC1SC(=Nc2ccccc2F)N(CCN2CCOCC2)C1=O)Nc1ccc(F)cc1F (stereo not shown)	1.58
COc1ccc(S(=O)(=O)N2CCCN(CCC(=O)Nc3cccc(C(F)(F)F)c3)CC2)cc1	-12.7
O=C1CCCc2oc3ccc(NS(=O)(=O)c4cccc5cccnc45)cc3c21	8.92
CC(C)NC(=O)c1cnc(N2CCN(c3ccccn3)CC2)c2ccccc12	7.48
CCc1ccc(C(=O)C23CN4CN(CN(C4)C2)C3)cc1	5.68
Cc1ccc(S(=O)(=O)N2CCN(C(=O)COC(=O)C3CC3C)CC2)c(C)c1 (stereo not shown)	-3.18
O=c1c2ccccc2nnn1CSc1ccccc1F	5.04
CC(C)(C)NCC(O)c1cc(Cl)c(N)c(Cl)c1.Cl (stereo not shown)	4.02
O=C(COC(=O)c1cccc(Cl)c1)Nc1ccc2[nH]c(=O)[nH]c2c1	1.63
O=C(NCCN1CCOCC1)c1cc2ccccc2oc1=O	5.73
COc1ccc(-c2cccc(NS(=O)(=O)c3cccc([N+](=O)[O-])c3)c2)nn1	9.11
CC(=O)c1c(N2CCCC2)[nH]c(-c2ccccc2)nc1=S	-3.96
CCC(CC)C(=O)NCCNC(=O)C(CC)CC	14.4
CN(C)C=Nc1ccccc1C1C=NNC1=O (stereo not shown)	10.6
CC(NC(=O)Cc1cccs1)C(c1cccs1)N1CCOCC1 (stereo not shown)	6.61
CC(=O)c1ccc(S(=O)(=O)NCc2nnnn2-c2ccccc2)cc1	10.9
Cc1ccc(N2C(=O)[C@@H]3C(c4cccnc4)=NO[C@@H]3C2=O)c(C)c1	17.2
NCCCC[C@H]1CNC(=O)C(=O)N1CC1CCCCC1	19.3
COc1ccc(C(=O)Nc2cccc(C(=O)N/N=C/c3ccc(OC)cc3OC)c2)cc1	9.51
C[C@]12CC[C@H]3[C@@H](CCC4=CC(=O)CC[C@@]43O)[C@@H]1CCC2=O	0.0717

Structure (SMILES)	hERG current change (%, negative = inhibition) at 1uM [%]
CCOc1ccc(NC(=O)Cn2cc(C(C)=O)c3ccccc32)cc1	2.97
COc1ccc(C(=O)c2oc3ccc(Br)cc3c2NC(C)=O)cc1	4.56
CCc1ccc(NS(=O)(=O)c2cc3[nH]c(=O)c(=O)[nH]c3cc2C)cc1	17.4
O=C(COc1ccc(Br)cc1)NCCNC(=O)c1ccccn1	-0.378
O=C(COC(=O)c1cccnc1Nc1ccccc1F)NCCN1C(=O)CSC1=O	0.954
O=C(NCc1nnc(SCC(=O)N2CCC(Cc3ccccc3)CC2)o1)c1ccco1	-6.48
CC1(C)CC(NC(=O)COc2ccc([N+](=O)[O-])cc2)CC(C)(C)N1	3.47
CN1C(=O)CN=C(c2ccc(Cl)cc2)c2cc(Cl)ccc21	-0.804
NC(=O)c1ccc(NC(=O)CN2C(=O)NC(c3ccccc3)(c3ccccc3)C2=O)cc1	16.6
CCCC(=O)C1=C(O)C(C(=O)OC)C(C)(C)CC1=Nc1ccc(Br)cc1 (stereo not shown)	13.2
CC1CCN(c2ncnc3c2cnn3Cc2ccc(Cl)cc2)CC1	4.18
COC(=O)C1=C(c2ccccc2)C[C@@H]2CC[C@H]1N2C	21.1
O=C(COC(=O)Cc1ccccc1F)Nc1ccc(SC(F)F)cc1	-1.11
Cc1cccc(OCc2ccc(C(=O)Nc3cc(C)on3)o2)c1	13.8
CC1C(=O)CCN(C(C)C)C1C.Cl (stereo not shown)	10.8
COCCN(C(=S)Nc1ccccc1C)C(C)c1cccnc1 (stereo not shown)	1.86
CCOc1ccc(CN2CCCC(CO)(Cc3ccc(F)cc3)C2)cc1 (stereo not shown)	-13.1
CCCCCCc1cc2cc(C(=O)Nc3cccc(OC)c3)c(=O)oc2cc1O	13.9
O=C(Nc1ccccc1-c1ccccc1)c1ccccc1Br	11.5
Nc1nc2c(c(=O)[nH]1)CN(Cc1ccccc1)CC2	5.8
CC(=O)n1cc([C@@H]2C=C(C(=O)N3CCN(Cc4ccc5c(c4)OCO5)CC3)O[C@H](OCCCCO)C2)c2ccccc21	-6.63
NC(=O)c1nsc(C(=O)N(CC(=O)NCc2ccc3c(c2)OCO3)C2CCCCC2)c1N	6.06
